The results in this text go back to article PMC10470960.

Assay in all cases: two-hybrid; one-hybrid assay: Kar4p-Gal4 DNA-binding domain recruits endogenous Ste12p to drive the HIS3 reporter in PJ69-4A; 10-fold serial dilutions on SC-HIS with 3 uM alpha-factor, 30 degrees; graded ++++ to -
Assay [1] addresses T1, Kar4p A157P fused to the Gal4p DNA-binding domain (S. cerevisiae) (UniProt P25583).
T1 sequence: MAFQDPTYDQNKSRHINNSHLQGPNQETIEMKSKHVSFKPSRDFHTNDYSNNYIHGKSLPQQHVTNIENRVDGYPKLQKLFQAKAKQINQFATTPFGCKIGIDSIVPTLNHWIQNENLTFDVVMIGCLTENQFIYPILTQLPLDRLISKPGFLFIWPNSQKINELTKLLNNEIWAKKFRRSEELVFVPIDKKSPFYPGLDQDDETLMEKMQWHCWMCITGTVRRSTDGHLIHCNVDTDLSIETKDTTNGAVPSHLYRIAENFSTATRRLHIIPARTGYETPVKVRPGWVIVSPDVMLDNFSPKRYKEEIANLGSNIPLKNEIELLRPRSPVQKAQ

For assay [2], the target named is T2, Kar4p E183K fused to the Gal4p DNA-binding domain (S. cerevisiae) (UniProt P25583).
T2 sequence: T1 sequence with P157A, E183K

For assay [3], the target named is T3, Kar4p C127Y fused to the Gal4p DNA-binding domain (S. cerevisiae) (UniProt P25583).
T3 sequence: T1 sequence with C127Y, P157A

In assay [4] the target is T4, Kar4p T264P fused to the Gal4p DNA-binding domain (S. cerevisiae) (UniProt P25583).
T4 sequence: T1 sequence with P157A, T264P

Assay [5] concerns the target T5, Kar4p Q132K fused to the Gal4p DNA-binding domain (S. cerevisiae) (UniProt P25583).
T5 sequence: T1 sequence with Q132K, P157A

Assay [6] has as its target T6, Kar4p G287D fused to the Gal4p DNA-binding domain (S. cerevisiae) (UniProt P25583).
T6 sequence: T1 sequence with P157A, G287D

Changes are numbered by the printed parent chain. No constants are given. Whether binding was seen depends on the method and setting. Some results given as binding are weak or reduced against the parent protein; the word gives no strength. Sequences can lack the tags named with a protein.

B1: Ste12p (protein, UniProt P13574 1-688)
chain: MKVQITNSRTEEILKVQANNENDEVSKATPGEVEESLRLIGDLKFFLATAPVNWQENQIIRRYYLNSGQGFVSCVFWNNLYYITGTDIVKCCLYRMQKFGREVVQKKKFEEGIFSDLRNLKCGIDATLEQPKSEFLSFLFRNMCLKTQKKQKVFFWFSVAHDKLFADALERDLKRESLNQPSTTKPVNEPALSFSYDSSSDKPLYDQLLQHLDSRRPSSTTKSDNSPPKLESENFKDNELVTVTNQPLLGVGLMDDDAPESPSQINDFIPQKLIIEPNTLELNGLTEETPHDLPKNTAKGRDEEDFPLDYFPVSVEYPTEENAFDPFPPQAFTPAAPSMPISYDNVNERDSMPVNSLLNRYPYQLSVAPTFPVPPSSSRQHFMTNRDFYSSNNNKEKLVSPSDPTSYMKYDEPVMDFDESRPNENCTNAKSHNSGQQTKQHQLYSNNFQQSYPNGMVPGYYPKMPYNPMGGDPLLDQAFYGADDFFFPPEGCDNNMLYPQTATSWNVLPPQAMQPAPTYVGRPYTPNYRSTPGSAMFPYMQSSNSMQWNTAVSPYSSRAPSTTAKNYPPSTFYSQNINQYPRRRTVGMKSSQGNVPTGNKQSVGKSAKISKPLHIKTSAYQKQYKINLETKARPSAGDEDSAHPDKNKEISMPTPDSNTLVVQSEEGGAHSLEVDTNRRSDKNLPDAT
As for B1, the binding entry in assay [1] is “no binding”; in assay [2], “no binding”; in assay [3], “binds”; in assay [4] it was “binds”; in assay [5], “binds”; in assay [6] it was “binds”.
